In the supplement of paper PMC11417369:
The other results are listed elsewhere or left out.

These sequences were tested on PfSIP2 AP2 domain 1 (GST-tagged) (assay: gcPBM binding intensity (ln(normalized median fluorescence intensity)); higher = stronger DNA binding).
In short: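 Using an Agilent 4 × 180k array, primer-extended double-stranded 36-bp intergenic genomic probes and negative controls were exposed for 1 h to GST-fused P. falciparum DNA-binding domains expressed in E. coli. Binding was carried out in 1× PBS with 1% milk, 0.2 mg/ml BSA, 0.5% salmon testes DNA and 0.03% Triton X-100, and protein was detected with Alexa488 anti-GST antibody and a 488 nm scan. Binding intensity is the highest Masliner-normalised natural-log median intensity across replicate spots of either probe orientation.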

| Sequence | gcPBM binding intensity (ln) |
| --- | --- |
| TCTTTGTACTTTCACATGTACACCCAAATGGAAATT [CACACA_negctrl_site1442] | 7.22 |
| ATATTTATGGAATATACACACATGTATAATTACATA [CACACA_site7045] | 7.01 |
| AGGACTAATATTTGAACACACATATAATAAATACAT [CACACA_site6068] | 6.95 |
| ATTTTTTTTTCTTAATGTACATACCAAAAAGAAAGA [XGTACX_site5471] | 7.45 |
| TATAATATATTTTAATGTACGTACATCCCGATTAAT [XGTACX_site7651] | 7.26 |
| TTTGTCTGCATACGCACACACGTGTACCATCTTATG [CACACA_site4784] | 7.04 |
| TATTAATATATATGTTGTACAAGTTTTTTTTTTTTT [XGTACX_site5865] | 7.04 |
| GATAAAATATGTTGCCGTACATATTCATATACTTAA [XGTACX_site4776] | 7.01 |
| TTCTATATTTCTTTTTGTACATATAAATTCAAATAA [XGTACX_site2476] | 7.64 |
| ATATAAAATAATACATGTACATATTATATATATATA [XGTACX_site1082] | 8.89 |
| TATATACGCATTTTTATACACACTTGTTTTATAAAA [CACACA_site727] | 7.28 |
| TATTTATATTCATAATGTACATTCAATTATTGTTTT [XGTACX_site4191] | 7.11 |
| TTCTTTATTTTTTCTACACACATTATATATTCAAAG [CACACA_site5866] | 7.62 |
| AAATATTAAATGACAAAAAAAAAAAAAAAAGGGGTT [CACACA_negctrl_site951] | 6.99 |
| TATTTTGAAAATAAAAGTACAAATTTTATATTTAAA [XGTACX_site3238] | 6.78 |
| TAAAAGTTCACCTGTACACACATATATATATGTACA [CACACA_site1707] | 7.08 |
| TTTTTTATTTTTTGTTATATTTATAATAATTTATGA [XGTACX_negctrl_site260] | 6.68 |
| ATATATATATATGTAGTGCATTTTATATATAATATT | 9.01 |
| TACTTTACACATATTTTTAATTATTCTGAATTCAAA [GTGCAC_negctrl_site253] | 7.06 |
| TACAGATATTTTATTTCACACATTTTATCATTTTCT [CACACA_site5701] | 6.96 |
| TTCAAAAAAGGAAAGTTGCACTTGATACGCTTATTA [GTGCAC_site9411] | 7.83 |
| AAGAAATAAATACATACACACATATATATATATATA [CACACA_site3362] | 9.51 |

| Sequence | gcPBM binding intensity (ln) |
| --- | --- |
| ATAAGTAATATAATATGTACATATATATATATATAT [XGTACX_site3818] | 9.25 |
| TATATATTGTTATAATGTACATAATATTTTATCTGC [XGTACX_site4983] | 7.08 |
| ATGCAAAATAAAGAAGCACACAAAAATGAAATATAT [CACACA_site9217] | 7.2 |
| AGAATAATTTTATCGGTACACACTGTATGCATAATA [CACACA_site374] | 7.08 |
| GGAAATTTCAATATTTGTACATATATATATATATAT [XGTACX_site3222] | 9.79 |
| AACAAAAGTAATTAAAAACAATACAAACATATGTTT [XGTACX_negctrl_site220] | 6.76 |
| TGGATAAAATAAAAATGTACTTAACATTTATATTTT [XGTACX_site712] | 6.83 |
| AAATAATATAAACATACACACACACCGATATATATA [CACACA_site8945] | 7.42 |
| TTTCTAATTTATATCACACACATATAAATATAGTAA [CACACA_site6210] | 7.19 |
| ATCATTCAAAAATGCTGTACTAGGGGAAAACGTGTT [XGTACX_site7168] | 6.89 |
| ATATATAGGTTCCCTTTTCTTTTTTTTTTTTTTTTT [CACACA_negctrl_site1159] | 7.71 |
| ATGTATGAAAAAATGTGTACATAATTTTTTTTTTTT [XGTACX_site5444] | 7.5 |
| TTAAATGTTGGTTGTAGTACTCCATATGTTGTTTTA [XGTACX_site5312] | 7.04 |
| CTTATGTGCATACCTACACACTTACATATATATATA [CACACA_site8973] | 9.51 |
| TTTGGAATATTAATTGTGCACTTAAAAAGTTAATTA | 10 |
| TATATATATATAAGATGTACCCTTTGAAATAATAAT [XGTACX_site7215] | 8.92 |
| TGATACTGCAAAAAATATAAAAAAATAATAAAATAA [CACACA_negctrl_site791] | 6.8 |
| AACATAAAACGTAATATATTACAAATATAAACAATC [CACACA_negctrl_site1675] | 7.29 |
| TTACCATTTGAAAATTCACACACTTTATTTTGTTAT [CACACA_site3799] | 6.93 |
| ATATATATATATATATGTACATATTTTATAACTGTA [XGTACX_site5395] | 9.2 |
| ATTTATACATATAAACGTACATACATATATAATATT [XGTACX_site2969] | 7.2 |
| TGAACAAAAAAAAATTGTACTTTTTTTTTAATATTT [XGTACX_site7172] | 7.15 |

| Sequence | gcPBM binding intensity (ln) |
| --- | --- |
| TTTCTTCGAAATAGAACACTTGTGCAAAATAAGCAA [XGTACX_negctrl_site361] | 7.26 |
| AAAAAAAACAATCTCATACACACTAGGGATTAATTA [CACACA_site1776] | 6.63 |
| ATATATACTATAATAGTGCATTAAAAAAGTAAAAAT | 8.63 |
| TAAAGAGAAATATGTACATGCGAAAATGCCTTAAAT [TGCATGCA_site1050] | 7.2 |
| AGACAATAATATAATCGTACAATAAATAAAATAAAA [XGTACX_site5231] | 6.9 |
| AAATATAATATACAAAGTACTTTTTCATCTTATATA [XGTACX_site8771] | 6.84 |
| AAAATAATCTTTTGATTGCACTGTTACATTTTTTCT [GTGCAC_site9563] | 7.67 |
| TTTATGTATTTTTATGCACACATGCGTGGCTTATAT [CACACA_site4374] | 7.17 |
| TACGGACATACTAACGGACACACGTAAGAAAAAAAA [CACACA_site602] | 7.14 |
| TTTATAATAAAATTTTTACACACTTTAAAAAAAAAA [CACACA_site8070] | 6.99 |
| TTTTTTTCAATATTTGCACACGATTATAATATTTAA [CACACA_site2237] | 7.24 |
| AATATTCGTAATTGATGTACTTGTAATTCATACATT [XGTACX_site8314] | 6.78 |
| AATAAATATCTGTACACACACAAATAAATACATATC [CACACA_site5108] | 7.19 |
| TATAATAAAAATAATACACACATATATAGCAATCGT [CACACA_site3241] | 7.27 |
| CAGAATAATTTTATCGGTACACACTGTATGCATAAT [XGTACX_site736] | 7.15 |
| TTCTGTATAATATAAAAACAAAAATTAAATTAAAAC [CACACA_negctrl_site81] | 7.09 |
| CATAAAATATAAAACACACACACATATATATATATA [CACACA_site223] | 9.29 |
| AAATTTTTTATTCTAATTAATATTTACACAATATAT [TGCATGCA_negctrl_site376] | 6.76 |
| TTCCATGTAGGACATGCATGCAGTTTTTAAAATATT [TGCATGCA_site481] | 7.03 |
| TATTATATAAATATACGTACATATACTAACCTTTTA [XGTACX_site6317] | 7.23 |
| TATGACATATCCTGTAGTACAACGTATATATAAGAT [XGTACX_site1327] | 7.11 |
| ATATATAACGTGCACACACACATTTACGTATGAATA [CACACA_site6948] | 10.4 |

| Sequence | gcPBM binding intensity (ln) |
| --- | --- |
| AATAAAAATAATGAATGTACATATATATATACAATA [XGTACX_site3342] | 6.86 |
| TTTTATTAAAACCACGCATGCAGAGGAAACGGTGAG [TGCATGCA_site1029] | 7.56 |
| ATATATAATTTTTGCTGTACACAAAATATTAATTTA [XGTACX_site2057] | 7.3 |
| ATTATATCATCTAAAACATGCACACATATGTACTCT [TGCATGCA_site949] | 7.12 |
| GTTGAGAAAATATGTGCATGTCAGGTTAAATTTTTA [TGCATGCA_site744] | 7.7 |
| ATATATATATATATATGTACATAATATATGTCCTAT [XGTACX_site5087] | 9.03 |
| GTAAGCATAAATATATGTACATACATATACAGATAT [XGTACX_site3361] | 6.97 |
| TAAGATAAAAAAAATGCATGTTCTTATAATATTGTC [TGCATGCA_site939] | 6.99 |
| ATTAGTTTACACATATGTACATATATTACAACAAAA [XGTACX_site275] | 7.34 |
| GGTGATATAATATATACATGCACATATATATTATTA [TGCATGCA_site970] | 9.65 |
| TATGGAAATATATATTGTACGTATGACCTTTAAAAA [XGTACX_site3935] | 7.04 |
| TTACAAAAAAATAATTGTACATACAATTTCTGTTAT [XGTACX_site877] | 6.99 |
| TTTATATGTATGAAGTGTACACATATATTGTATTTT [XGTACX_site5731] | 7.24 |
| ACACATTATAAAACTGTCGCTCATAAAGAAGAATGA [CACACA_negctrl_site999] | 6.93 |
| GCAACAAAAAATCAGACATGCATTTTAAAATGAATA [TGCATGCA_site846] | 6.81 |
| CATATTGAATATTTAACACACATTTCGCTTAATTCA [CACACA_site2086] | 6.79 |
| TATAAAAAAAAAATTTGTACATAATAATATATATAT [XGTACX_site2074] | 8.4 |
| TTATATATAAAATACTGTACATTTAATTGATGGTTT [XGTACX_site2073] | 6.95 |
| GAATGAATTGTTATTAGTACACATGTGAATTATAAA [XGTACX_site6790] | 7.1 |
| AAAAAGCAGGATTATACACACAAATATATATATGTT [CACACA_site1077] | 6.91 |
| TATATAAATTTAATAACACACATATAAAAATGAATT [CACACA_site2366] | 6.95 |
| ATTTTTTTTTTTTTTATTCCCCTTTCGAAAAAAACC [CACACA_negctrl_site1139] | 7.18 |
